# About 1,100 (0.38%) of roughly 290,000 compounds were called active. The inconclusive results got no clear call from the source; some entries with a clear call stand among them for comparison. Calls follow the shape of the dose curve; as a rule, active = well fitted inhibition curve with a large enough effect; inconclusive = small, poorly fitted or top-dose-only effect, or another doubt; inactive = no such curve, though single readings can be large or run the other way. Potencies beside an inconclusive call are fits to weak or partial responses and may not hold up.
# Biological target: Pyruvate kinase (Leishmania mexicana) (UniProt Q27686)
# Experiment: qHTS Assay for Inhibitors of Leishmania Mexicana Pyruvate Kinase (LmPK)
# Conditions: purified LmPK, Kinase-Glo ATP luminescence, 1 h; series mostly up to 57.5 µM
# Outline: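 Kinase-Glo luminescence read after 1 h RT reaction of 0.1 nM LmPK with 0.5 mM PEP and 0.1 mM ADP. Activity scaled between uninhibited and enzyme-free controls.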
# Potency is read from the fitted curve at half-maximal effect; tags tell the direction and shape of the fitted curve.
# UniProt Q27686, sequence (Q27686 whole entry, looked up): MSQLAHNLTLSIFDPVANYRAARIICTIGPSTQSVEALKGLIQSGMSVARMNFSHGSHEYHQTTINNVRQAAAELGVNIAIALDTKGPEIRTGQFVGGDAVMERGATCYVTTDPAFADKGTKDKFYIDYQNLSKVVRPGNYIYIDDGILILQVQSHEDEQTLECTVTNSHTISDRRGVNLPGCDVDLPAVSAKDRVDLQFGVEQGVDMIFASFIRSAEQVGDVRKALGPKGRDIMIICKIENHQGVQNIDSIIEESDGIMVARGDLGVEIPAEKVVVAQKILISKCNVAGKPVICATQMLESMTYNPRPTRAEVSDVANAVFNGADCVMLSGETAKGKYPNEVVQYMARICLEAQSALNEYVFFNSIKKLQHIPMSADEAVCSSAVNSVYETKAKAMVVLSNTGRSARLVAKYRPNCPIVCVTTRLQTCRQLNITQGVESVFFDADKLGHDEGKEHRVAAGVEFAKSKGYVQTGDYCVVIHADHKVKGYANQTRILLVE
row,SMILES,Potency
1,N/C(=N\OC(=O)c1ccc(Cl)cc1)c1nonc1N,active: 12.6 µM
2,CCCCCCC(=O)N(O)C1CC(=O)N(c2ccc(Br)cc2)C1=O (centres undefined),"inconclusive: 39.8 µM [falling, single point]"
3,O=C(O)/C=C/C(=O)Nc1ccc2c(c1)C(=O)c1ccccc1C2=O,"inconclusive: 28.2 µM [falling, partial curve]"
4,Cc1nonc1C(=O)N/N=C/c1ccc(O)cc1,active: 8.91 µM
5,COc1ccc(-c2nc(-c3ccccn3)no2)cc1,active: 1.58 µM
6,Cc1cc(C)n2nc(-c3ccc(F)cc3)nc2n1,"inconclusive: 25.1 µM [falling, partial curve]"
7,Cc1ccc(C)c(-n2c(-c3csc(C)c3C)n[nH]c2=S)c1,active: 7.08 µM
8,CC(CN1CCN(C)CC1)OC(=O)c1ccccc1 (centres undefined),inactive
9,Fc1ccc(-n2c(-c3ccco3)n[nH]c2=S)cc1,"inconclusive: 31.6 µM [falling, single point]"
10,O=C(Nc1cccnc1)c1cc(-c2ccc3c(c2)OCO3)on1,"inconclusive: 7.08 µM [falling, partial curve]"
11,Cc1cccc(NC(=O)/C=C/c2cccs2)n1,"inconclusive: 14.1 µM [falling, partial curve]"
12,COc1ccc(C2C(=O)c3ccccc3C2=O)cc1,"inconclusive: 17.8 µM [falling, partial curve]"
13,CCOc1cc(/C=C/c2nc3cc(C)c(C)cc3s2)ccc1OCC(=O)N1CCOCC1,inactive
14,COc1ccccc1C(=O)Nc1nc2ccccc2[nH]1,active: 11.2 µM
15,CCCOC(=O)c1ccc(NC(=O)c2ccoc2C)cc1,"inconclusive: 14.1 µM [falling, partial curve]"
16,CSC1=N/C(=C\C=C\c2cccs2)C(=O)S1,"inconclusive: 35.5 µM [falling, single point]"
17,COc1ccc(O)c(/C=N/N2CCOCC2)c1,"inconclusive: 14.1 µM [falling, single point]"
18,CSCc1ccc(C(=O)Nc2ccc(C(N)=O)cc2)cc1,"inconclusive: 15.8 µM [falling, partial curve]"
19,COc1cccc(C=Nc2cc(C)on2)c1O,active: 15.8 µM
20,O=C(Nc1ccc2[nH]ccc2c1)c1ccc(F)cc1,"inconclusive: 28.2 µM [falling, partial curve]"
21,Clc1ccc(-c2cn3c(n2)-c2ccccc2C3)cc1Cl,active: 25.1 µM
22,CC(C)c1cc(C(N)=O)c(NC(=O)c2cccc(COc3ccc(Cl)cc3)c2)s1,inactive
23,Cc1ccc(NC(=O)Cn2cccc2)cc1Cl,inactive
24,CCN1/C(=C2\C(=O)N(C)C(=S)N2C)C=Cc2cc(C)ccc21,active: 15.8 µM
25,Cc1cccc(/C(N)=N/OC(=O)c2ccc3c(c2)OCO3)c1,active: 4.47 µM
26,COC(=O)[C@@H](Cc1c[nH]c2ccccc12)NC(=O)CCC(=O)c1ccc(Br)cc1,inactive
27,COc1ccc(-c2nc3ccccc3c(=O)o2)cc1,active: 17.8 µM

row,SMILES,Potency
1,Cc1ccc(-n2c(-c3nn(C)c(C)c3Cl)n[nH]c2=S)cc1,"inconclusive: 10 µM [falling, partial curve]"
2,C/C(CC(=O)Nc1ccc([N+](=O)[O-])cc1)=N\NC(=O)c1ccccc1[N+](=O)[O-],inactive
3,COc1ccc(C(=O)Nc2nc3ccccc3[nH]2)cc1,"inconclusive: 14.1 µM [falling, partial curve]"
4,Cc1ccnc(NC(=O)CCC2COc3ccccc3O2)c1 (centres undefined),inactive
5,O=C(Nc1ccccc1)c1ccc2c(c1)OCCO2,active: 14.1 µM
6,CN(C)c1ccc(C(=O)c2ccc(O)cc2O)cc1,inactive
7,CCCc1nc2ccccc2c(=O)n1/N=C/c1c(C)[nH]n(-c2ccc(C)cc2)c1=O,"inconclusive: 25.1 µM [falling, single point]"
8,CCOc1ccc(-c2cc(C(=O)N3CCN(C)CC3)c3ccccc3n2)cc1,inactive
9,COc1ccc(-n2c(SC(C)C(=O)Nc3ncc(Cl)cc3Cl)nc3ccccc32)cc1 (centres undefined),inactive
10,COc1cc(OC)cc(C(=O)NCc2n[nH]c(=S)n2-c2ccccc2OC)c1,"inconclusive: 15.8 µM [falling, partial curve]"
11,Cc1nn(C)c(C(=O)NC(=S)Nc2ccccc2Br)c1Cl,inactive
12,CCc1nnc(NC(=O)c2ccc(S(=O)(=O)N(C)Cc3ccccc3)cc2)o1,inactive
13,COc1cccc(/C(C)=N/NC(=O)c2ccc(N(C)C)cc2)c1,"inconclusive: 25.1 µM [falling, partial curve]"
14,CCOc1ccc2nc(-c3ccccc3)[nH]c2c1,"inconclusive: 15.8 µM [falling, partial curve]"
15,NS(=O)(=O)c1ccc(NC(=S)NC(=O)c2ccc(Br)o2)cc1,inactive
16,CN(C)c1ccc(C=C2C(=O)OC(C)(C)OC2=O)cc1,inactive
17,COc1ccc(-c2nnc(SCCC(=O)O)n2-c2ccccc2)cc1,"inconclusive: 28.2 µM [falling, partial curve]"
18,O=C(O)c1ccc(/C=N/n2cc(-c3ccccc3)[nH]c2=S)cc1,active: 14.1 µM
19,COc1cccc(CSc2nc3ccccc3[nH]2)c1,"inconclusive: 20 µM [falling, partial curve]"
20,COc1ccc(-c2n[nH]c(=S)n2-c2ccc3c(c2)OCCO3)cc1,"inconclusive: 3.16 µM [falling, full curve]"
21,COC(=O)Cc1ccc(NC(=O)c2ccc(Br)o2)cc1,"inconclusive: 17.8 µM [falling, partial curve]"
22,O=C(Nc1cccc(O)c1)c1cc(-c2ccco2)on1,"inconclusive: 17.8 µM [falling, partial curve]"
23,CCOc1ccc(NC(=O)Nc2cccs2)cc1,"inconclusive: 10 µM [falling, partial curve]"
24,Cc1cc(C(=O)Cn2ncc(Cl)c(Cl)c2=O)c(C)n1CC(F)(F)F,inactive
25,O=C1c2ccccc2-c2nc3ccccc3cc21,"inconclusive: 39.8 µM [falling, partial curve]"
26,O=C(NC(=O)c1ccccc1)Nc1ccccn1,active: 4.47 µM
27,O=C(CNC(=O)c1ccc(N2C(=O)c3ccccc3C2=O)cc1)OCC(=O)c1ccccc1,inactive
